# Assay results as given in the supplement of paper PMC8728848.
# The list shows a part of the results.
# B1: PX9937F-bfa-516-16-516 (Bacteroides fragilis) (protein)
# chain: LDIDPTSSIADSNYWKTEAQFSTFNVGLHALLRECSFNFFLLGEPRADIYGDVPFGGEATQGMERLPFNTINKENTGISNFAGMYKVINQINLMIAKTKETTVLSEAGKNYYLGEAYGMRAYLYFHLLRSWGDVILYLDYTNGASLDLSNLSKAASPAEEVMKQIKEDITASEKGFGSDYSFKYGRYYWSMAATQMLKGEVYLWSGRQMGGGTADYTTAKTALQSIVSNANVSLQDDFSKVFAYNNKDNSEIIFSIRNAKDEYNMWDDRFRQNLVPQQAYMTSTYCNKEGVSFKDLPEGQLNGLIRLQIRYDLYNKAFRDGDTRKDASMTAVYQKQQDGTVKYIAPFCNKYQGVLLDGASQRSFLNDYPIYRYADCLLLLAEAKALLGEDPTAEINQVRERAYGKEFFEANKATLAYPNDKGDFYTDNKYMSGDEDPLEAILKERMREFMFEGKRWYDLRLLGADYVTKRTSAVATRLLWPINESVLTDNPALKQTPGYQN
# How the values were obtained:
# Assay in all cases: glycan array binding signal (z-score within array); higher = stronger binding
# Conditions in all cases: glycan notation: IUPAC condensed, linker removed
# [1] = target: Gal(b1-4)GlcNAc(b1-2)Man(a1-6)[Man(a1-3)]Man(b1-4)GlcNAc(b1-4)GlcNAc
# In short: (§1)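 From the Consortium for Functional Glycomics database, 3228 arrays were curated, keeping only those whose protein sequence was available. Binding is given as a within-array Z-score averaged across arrays sharing a protein sequence and across linkers. Negative Z-scores can be read as non-binding.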
# [2] = target: Gal(b1-4)GlcNAc(b1-2)[Gal(b1-4)GlcNAc(b1-4)]Man(a1-3)[Gal(b1-4)GlcNAc(b1-2)Man(a1-6)]Man(b1-4)GlcNAc(b1-4)GlcNAc
# In short: as §1
# [3] = target: Gal(b1-4)GlcNAc(b1-2)[Gal(b1-4)GlcNAc(b1-4)]Man(a1-3)[Gal(b1-4)GlcNAc(b1-2)[Gal(b1-4)GlcNAc(b1-6)]Man(a1-6)]Man(b1-4)GlcNAc(b1-4)GlcNAc
# In short: as §1
# [4] = target: Gal(b1-4)GlcNAc(b1-2)[Gal(b1-4)GlcNAc(b1-4)]Man(a1-3)[GlcNAc(b1-4)][Gal(b1-4)GlcNAc(b1-2)Man(a1-6)]Man(b1-4)GlcNAc(b1-4)GlcNAc
# In short: as §1
# [5] = target: Gal(b1-4)GlcNAc(b1-2)[Gal(b1-4)GlcNAc(b1-4)]Man(a1-3)[GlcNAc(b1-4)][Gal(b1-4)GlcNAc(b1-2)[Gal(b1-4)GlcNAc(b1-6)]Man(a1-6)]Man(b1-4)GlcNAc(b1-4)GlcNAc
# In short: as §1
# [6] = target: Gal(b1-4)GlcNAc(b1-2)[Gal(b1-4)GlcNAc(b1-6)]Man(a1-6)[Gal(b1-4)GlcNAc(b1-2)Man(a1-3)]Man(b1-4)GlcNAc(b1-4)GlcNAc
# In short: as §1
# [7] = target: Gal(b1-4)GlcNAc(b1-2)[Gal(b1-4)GlcNAc(b1-6)]Man(a1-6)[Gal(b1-4)GlcNAc(b1-2)Man(a1-3)]Man(b1-4)GlcNAc(b1-4)[Fuc(a1-6)]GlcNAc
# In short: as §1
# [8] = target: Gal(b1-4)GlcNAc(b1-2)[Gal(b1-4)GlcNAc(b1-6)]Man(a1-6)[GlcNAc(b1-4)][Gal(b1-4)GlcNAc(b1-2)Man(a1-3)]Man(b1-4)GlcNAc(b1-4)GlcNAc
# In short: as §1
# [9] = target: Gal(b1-4)GlcNAc(b1-2)[Gal(b1-4)GlcNAc(b1-6)]Man(a1-6)[GlcNAc(b1-4)][Gal(b1-4)GlcNAc(b1-2)[Gal(b1-4)GlcNAc(b1-4)]Man(a1-3)]Man(b1-4)GlcNAc(b1-4)[Fuc(a1-6)]GlcNAc
# In short: as §1
# [10] = target: Gal(b1-4)GlcNAc(b1-3)Gal(b1-3)GalNAc
# In short: as §1
# [11] = target: Gal(b1-4)GlcNAc(b1-3)Gal(b1-3)GlcNAc
# In short: as §1
# [12] = target: Gal(b1-4)GlcNAc(b1-3)Gal(b1-4)Glc
# In short: as §1
# [13] = target: Gal(b1-4)GlcNAc(b1-3)Gal(b1-4)GlcNAc
# In short: as §1
# [14] = target: Gal(b1-4)GlcNAc(b1-3)Gal(b1-4)GlcNAc(b1-2)Man(a1-3)[Gal(b1-4)GlcNAc(b1-3)Gal(b1-4)GlcNAc(b1-2)Man(a1-6)]Man(b1-4)GlcNAc(b1-4)GlcNAc
# In short: as §1
# [15] = target: Gal(b1-4)GlcNAc(b1-3)Gal(b1-4)GlcNAc(b1-2)Man(a1-3)[Gal(b1-4)GlcNAc(b1-3)Gal(b1-4)GlcNAc(b1-2)Man(a1-6)]Man(b1-4)GlcNAc(b1-4)[Fuc(a1-6)]GlcNAc
# In short: as §1
# [16] = target: Gal(b1-4)GlcNAc(b1-3)Gal(b1-4)GlcNAc(b1-2)[Gal(b1-4)GlcNAc(b1-3)Gal(b1-4)GlcNAc(b1-6)]Man(a1-6)[Gal(b1-4)GlcNAc(b1-3)Gal(b1-4)GlcNAc(b1-2)Man(a1-3)]Man(b1-4)GlcNAc(b1-4)GlcNAc
# In short: as §1
# [17] = target: Gal(b1-4)GlcNAc(b1-3)Gal(b1-4)GlcNAc(b1-2)[Gal(b1-4)GlcNAc(b1-3)Gal(b1-4)GlcNAc(b1-6)]Man(a1-6)[Gal(b1-4)GlcNAc(b1-3)Gal(b1-4)GlcNAc(b1-2)Man(a1-3)]Man(b1-4)GlcNAc(b1-4)[Fuc(a1-6)]GlcNAc
# In short: as §1
# [18] = target: Gal(b1-4)GlcNAc(b1-3)Gal(b1-4)GlcNAc(b1-3)Gal(b1-4)GlcNAc
# In short: as §1
binder,measurement,setting,value
B1,glycan array binding signal (z-score),[1],0.041
same,glycan array binding signal (z-score),[2],0.394
same,glycan array binding signal (z-score),[3],-0.256
same,glycan array binding signal (z-score),[4],-0.31
same,glycan array binding signal (z-score),[5],0.064
same,glycan array binding signal (z-score),[6],-0.096
same,glycan array binding signal (z-score),[7],-0.292
same,glycan array binding signal (z-score),[8],-0.338
same,glycan array binding signal (z-score),[9],-0.168
same,glycan array binding signal (z-score),[10],-0.111
same,glycan array binding signal (z-score),[11],-0.284
same,glycan array binding signal (z-score),[12],-0.069
same,glycan array binding signal (z-score),[13],-0.274
same,glycan array binding signal (z-score),[14],0.196
same,glycan array binding signal (z-score),[15],0.176
same,glycan array binding signal (z-score),[16],0.059
same,glycan array binding signal (z-score),[17],0.098
same,glycan array binding signal (z-score),[18],-0.356
